Source: PubChem BioAssay AID1159614 (National Center for Advancing Translational Sciences (NCATS), 2016)
The whole screen tested about 45,000 compounds, of which about 65 (0.1%) were called active. Calls come from the whole dose curve; as a rule, active = well fitted activation curve with a large enough effect; inconclusive = small, poorly fitted or top-dose-only effect; inactive = no such curve, though single readings can be large or run the other way. The list shows a part of the results.

Target: Galactocerebrosidase (Homo sapiens) (UniProt P54803)
Test: A Novel Cell-Based Assay to Identify Small Molecules for B -Galactocerebrosidase; note: 0% is about no effect; nearly all actives have a fitted effect of over 65% in size
Conditions: 145M-Twi-hGALC-G270D cells (Twitcher mouse brain line with human GALC G270D), HMU-beta-Gal fluorescence, 48 h; series mostly up to 57.5 µM; activation: at the top concentration
How it was run: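 Brain-derived Twitcher mouse 145M-Twi cells stably expressing human GALC-G270D or wild-type GALC, treated live, then residual GALC activity read by fluorescence of HMU-b-Gal substrate (0.1 mM final) in citrate-phosphate buffer pH 5.2 with sodium taurocholate. Signal increase indicates enhancement.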

Chain of UniProt P54803 (P54803 whole entry, looked up): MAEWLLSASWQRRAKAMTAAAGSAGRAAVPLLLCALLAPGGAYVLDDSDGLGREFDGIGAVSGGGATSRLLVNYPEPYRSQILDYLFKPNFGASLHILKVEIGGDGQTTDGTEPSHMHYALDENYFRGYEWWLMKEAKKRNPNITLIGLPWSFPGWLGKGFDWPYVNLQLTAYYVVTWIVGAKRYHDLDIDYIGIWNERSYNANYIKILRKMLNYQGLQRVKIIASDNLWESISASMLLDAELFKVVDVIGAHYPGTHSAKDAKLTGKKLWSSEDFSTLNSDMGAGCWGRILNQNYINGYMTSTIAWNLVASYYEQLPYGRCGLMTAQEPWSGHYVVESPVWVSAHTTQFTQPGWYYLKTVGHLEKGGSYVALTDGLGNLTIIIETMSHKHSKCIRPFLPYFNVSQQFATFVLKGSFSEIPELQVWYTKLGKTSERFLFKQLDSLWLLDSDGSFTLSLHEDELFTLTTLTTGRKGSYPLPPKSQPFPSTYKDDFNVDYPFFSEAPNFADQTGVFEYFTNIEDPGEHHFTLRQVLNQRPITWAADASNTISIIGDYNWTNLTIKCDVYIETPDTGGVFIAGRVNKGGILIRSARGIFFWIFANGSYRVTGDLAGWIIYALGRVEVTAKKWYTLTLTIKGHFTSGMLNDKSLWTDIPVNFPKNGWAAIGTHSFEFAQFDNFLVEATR

activation, inactive:
O=C(NCCn1cc(SCc2ccc(Br)cc2)c2ccccc21)c1cccs1 -13.9%
COc1ccc(CCNC(=O)C2CCN(Cc3nc(-c4ccc(OC)c(OC)c4)oc3C)CC2)cc1OC -8.46%
Cc1ccc(/C=C(\C#N)C(=O)Nc2cccc(Cl)c2)o1 -13.3%
CCN(CC)C(=O)Cn1c(=O)n(CC2CCC(C(=O)NC)CC2)c(=O)c2sccc21 (stereo unspecified) -7.5%
CCC1Oc2ccccc2N(CC(=O)NCc2cc(OC)ccc2OC)C1=O (stereo unspecified) -14.1%
CCCC(=O)N1CCc2cc(OC)c(OC)cc2C1COc1ccc(C(=O)OC)cc1 (stereo unspecified) -5.78%
CCOc1ccccc1-c1nc(Cn2c(=O)cc(C)c3c(C)nn(-c4ccccc4)c32)c(C)o1 -0.427%
O=C(CSc1nc(-c2ccccc2F)nc2cc(=O)[nH]n12)Nc1cccc(C(F)(F)F)c1 -21.6%
Cc1ccc(OCC(=O)Nc2ccc(S(=O)(=O)Nc3cc(C)on3)cc2)c(Br)c1 -16.9%
Cc1cc(C)cc(NC(=O)C2CCCN2S(=O)(=O)c2ccc3nc(-c4ccccc4)[nH]c3c2)c1 (stereo unspecified) -3.65%
COC(=O)c1sc(-c2ccccc2)cc1NC(=O)Nc1ccc(F)cc1 -17.4%
COc1ccc(C(CC(=O)NCc2ccc(Cl)cc2)N2Cc3ccccc3C2=O)cc1OC (stereo unspecified) -27.9%
Cc1ccc(CNC(=O)c2ccc3c(c2)N(Cc2ccccc2Cl)C(=O)CS3)cc1 -5.17%
CCOc1ccc2nc(N(Cc3cccnc3)C(=O)C3CCCCC3)sc2c1 -7.35%
Cc1ccc(-c2nnc(Nc3ccccc3)c3ccccc23)cc1S(=O)(=O)N1CCOCC1 -22.3%
Cc1ccc(C2CCN(C(=O)Nc3ccc(Cl)c(Cl)c3)C2)cc1 (stereo unspecified) 3.85%
Cc1cccc(N2CCN(C(=O)c3oc(=O)c4ccccc4c3-c3ccccc3)CC2C)c1 (stereo unspecified) -8.2%
Cc1oc2ncn(C)c(=O)c2c1C(=O)Nc1ccc(F)cc1 -13.8%
Cc1cc(OCC(=O)NC(Cc2c[nH]c3ccccc23)C(=O)O)ccc1Cl (stereo unspecified) 4.42%
Cc1cc(N2CCN(c3ccc(F)cc3)CC2)n2nc(-c3ccc(Cl)cc3)nc2n1 -11.1%
CCc1nn(CC(=O)NCCc2ccc(Cl)cc2)c(=O)c2cc3ccccc3n12 -9.64%
CCOC(=O)c1[nH]c(C)c(CCC(=O)Nc2ccccc2C(=O)OC)c1C -6.12%
O=C1CC2(CCCC2)CC(=O)N1CCNCC1COc2ccccc2O1 (stereo unspecified) -5.75%
CC(C)OCCCNC(=O)c1ccc(Cn2c(=O)c3cccn3c3cccnc32)cc1 1.29%
Cc1cccc(CSc2nc(=O)c3c(n2C)NC(=O)CC3c2cc(F)cc(F)c2)c1 (stereo unspecified) -15.3%
COc1cccc(CNC(=O)c2cccc(-n3c(C)nc4cccnc43)c2C)c1 -10.9%
COc1ccc(Cn2c(CCC(=O)Nc3ccc(C)cc3C)nc3cccnc32)cc1 -15.7%
CCOC(=O)[C@H](CCc1ccccc1)N[C@@H](C)C(=O)N1CCC[C@H]1C(=O)O -7.75%
CCn1c(=O)cc(SCC(=O)NCc2ccc(Cl)cc2)c2ccccc21 -5.16%
COc1cccc(CNCc2cccn2-c2nnc(N3CCN(c4ccccc4)CC3)s2)c1 -14.7%
COc1ccc(-c2[nH]ncc2C(=O)NCc2cccc(OC)c2)cc1 -6.39%
O=C(CCn1c(=O)c2sccc2n(CC(=O)Nc2ccccc2)c1=O)NCc1ccccc1Cl -9.01%
Cc1ccsc1CN(C(=O)COc1ccc(Cl)cc1)C1CCS(=O)(=O)C1 (stereo unspecified) -12.7%
CCOc1cccc2cc(-c3cn4c(n3)sc3ccccc34)c(=O)oc12 -10.9%
CC1CCN(S(=O)(=O)c2ccc3c(ccc(=O)n3CC(=O)NCc3ccccc3Cl)c2)CC1 -17.3%
Cc1ccc(CNC(=O)CSc2nnc(C)c3c(C)n(-c4ccccc4)nc23)cc1 -21.4%
Cc1ccc2c(c1)c1c(c(=O)n(-c3ccccc3C)c(=O)n1CC(=O)c1ccc(Cl)cc1)n2C -9.02%
COc1ccc(NC(=O)CSC2=Nc3ccccc3N=C(c3ccc(F)cc3)C2)cc1OC -8.66%
CCN(C(=O)CCNC(=O)Cn1cnc2ccccc2c1=O)c1cc(OC)ccc1OC -5.99%
CCCCCOc1ccc(C2SC(=O)NC2=O)cc1OCC (stereo unspecified) -9.5%
CCSc1ncc(Cl)c(C(=O)Nc2nc3ccc(Cl)cc3s2)n1 -0.679%
O=C(Nc1ccc(O)c(-c2nc3ccccc3o2)c1)c1ccc(Br)cc1 -4.76%
CN(C)c1cccc(C(=O)Nc2nc3ccc(S(=O)(=O)N4CCCC4)cc3s2)c1 -31.4%
CN(C)c1ccc(CNC(=O)CN2C(=O)CSc3ccc(S(=O)(=O)N4CCCC4)cc32)cc1 -6.94%
CCC1CN(C(=O)N2CCC(C(=O)NCc3cc(OC)c(OC)c(OC)c3)CC2)c2ccccc2O1 (stereo unspecified) -16.5%
O=S(=O)(c1ccc(Cl)cc1)c1nnn2c1nc(NC1CCCCC1)c1sccc12 -14%
CN(C)c1ccc(NC(=O)Cn2nnc3sc4c(c3c2=O)CCC(C(C)(C)C)C4)cc1 (stereo unspecified) -13.3%
Cc1ccc(-n2c(=O)c3c(cnn3C)n(Cc3ccc(Cl)cc3)c2=O)cc1 -3.7%
Cc1cc(NC(=O)CCc2nc3cccnc3n2Cc2cccs2)ccc1Br -18.8%
Cc1cccc(NC(=O)c2oc3ccccc3c2NC(=O)c2cc(=O)c3ccc(C)cc3o2)c1 1.15%
Cc1ccc(NC(=O)Nc2c[nH]c(=O)[nH]c2=O)c(Cl)c1 -3.1%
CCOc1ccc2nc(N3CCCC(C(=O)Nc4cc(C)ccc4C)C3)sc2c1 (stereo unspecified) -12.6%
Cc1ccc(NS(=O)(=O)c2cc(-c3cc(C)no3)ccc2C)c(Cl)c1 -3.57%
CC(=O)Nc1ccc(NC(=O)C2CCN(S(=O)(=O)c3ccc4c(c3)CCCC(=O)N4)CC2)cc1 -25.3%
CCc1ccccc1NC(=O)CSc1nnc(-c2ccc(OC)cc2)s1 -15.7%
CCc1ccc(NC(=O)N(Cc2c[nH]c3ccccc23)C2CCCCC2)cc1 -24.7%
CCOc1ccc(CNC(=O)c2ccc3[nH]c(C)c(C)c3c2)cc1OC -5.37%
Cc1nc2ccc(CN(C)c3ccc(C(=O)N[C@@H](CCC(=O)O)C(=O)O)s3)cc2c(=O)[nH]1 -11.2%
CCOc1cc(C(=O)Nc2ccc(NC(=O)c3cc4ccccc4o3)c(OC)c2)cc(OCC)c1OCC 4.71%
Cc1cccc(-n2c3nc(=O)n(C)c(=O)c-3cc3c(Cl)cccc32)c1C 2.15%
CCc1nc(SCC(=O)Nc2ccc(NC(C)=O)cc2)n[nH]1 -18.9%
